These results are taken from PMC4336329 (PLoS ONE, 2015).

About 2,200 (0.71%) of roughly 310,000 compounds showed an effect of 50% or more. The effect is printed as a negative number. The list shows a part of the results.

The target in this test is human ether-à-go-go-related gene (hERG) potassium channel (human, UniProt Q12809). The test is described as follows: primary screen, population patch clamp on CHO cells stably expressing hERG.
human ether-à-go-go-related gene (hERG) potassium channel, sequence (Q12809 whole entry, looked up): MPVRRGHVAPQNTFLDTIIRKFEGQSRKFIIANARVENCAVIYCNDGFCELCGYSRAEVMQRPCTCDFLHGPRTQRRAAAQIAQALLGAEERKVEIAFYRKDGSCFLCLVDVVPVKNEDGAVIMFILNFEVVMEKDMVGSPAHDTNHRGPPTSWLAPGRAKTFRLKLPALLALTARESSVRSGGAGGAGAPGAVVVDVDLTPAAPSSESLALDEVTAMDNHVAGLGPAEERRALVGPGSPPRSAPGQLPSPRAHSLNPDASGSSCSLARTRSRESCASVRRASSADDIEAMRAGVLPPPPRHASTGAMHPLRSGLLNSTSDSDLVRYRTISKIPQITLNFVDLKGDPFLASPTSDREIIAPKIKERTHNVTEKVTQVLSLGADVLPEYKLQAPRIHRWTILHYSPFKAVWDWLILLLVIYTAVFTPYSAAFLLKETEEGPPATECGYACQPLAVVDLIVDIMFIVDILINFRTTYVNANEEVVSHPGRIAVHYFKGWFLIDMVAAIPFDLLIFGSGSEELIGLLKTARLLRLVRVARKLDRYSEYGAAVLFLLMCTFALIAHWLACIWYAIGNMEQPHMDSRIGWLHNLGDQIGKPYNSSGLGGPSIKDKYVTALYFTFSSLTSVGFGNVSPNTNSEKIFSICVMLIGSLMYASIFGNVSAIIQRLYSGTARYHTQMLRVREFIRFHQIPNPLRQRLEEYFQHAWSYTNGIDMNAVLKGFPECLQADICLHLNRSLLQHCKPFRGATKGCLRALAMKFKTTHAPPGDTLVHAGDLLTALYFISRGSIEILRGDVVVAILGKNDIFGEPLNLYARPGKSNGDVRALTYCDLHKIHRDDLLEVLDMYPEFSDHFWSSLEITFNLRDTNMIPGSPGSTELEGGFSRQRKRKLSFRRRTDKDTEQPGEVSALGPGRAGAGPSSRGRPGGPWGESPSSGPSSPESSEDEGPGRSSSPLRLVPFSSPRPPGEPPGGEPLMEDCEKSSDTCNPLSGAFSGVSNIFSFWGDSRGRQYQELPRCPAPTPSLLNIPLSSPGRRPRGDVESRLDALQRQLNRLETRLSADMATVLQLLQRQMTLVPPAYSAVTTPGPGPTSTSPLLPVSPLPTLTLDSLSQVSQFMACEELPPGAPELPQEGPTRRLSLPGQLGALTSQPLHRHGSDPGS
Turning to `CC1CCCC(C)N1C(=O)COc1ccc(C(=O)N/N=C/c2ccc(C(=O)O)cc2)cc1` (centres unmarked), the “hERG current change (%, negative = inhibition) at 1uM” value came out at 9.6%.
Then `S=C(NCc1ccc(Cl)cc1)N1CCN(c2ccccn2)CC1`, with 2.63%.
The figure for `CC1(C)CC(=O)C(CS(=O)(=O)c2ccccc2)=C(O)C1` is 6.22%; for `O=C(CNS(=O)(=O)c1c(F)cc(F)cc1Br)OCC(=O)N1CCCC1=O` it is 13.1%; for `CS(=O)(=O)N1CC2CCCN2c2ccc(C(F)(F)F)cc21` (centres unmarked) it is 7.13%.
Then `O=C(NCc1ccc(Cl)cc1)C(=O)c1c[nH]c2ccccc12`, with 10.4%; and `CCn1nc(C)c([N+](=O)[O-])c1C(=O)NNC(=O)c1ccc(Cl)cc1`, with 2.72%.
Regarding `O=C(C1CCC1)N1CCc2cc(S(=O)(=O)N3CCN(c4ccccn4)CC3)ccc21`, the “hERG current change (%, negative = inhibition) at 1uM” value is recorded as 2.29%.
Regarding `Cc1ccccc1NS(=O)(=O)c1cccc(C(=O)Nc2cccc(C(=O)O)c2)c1`, the “hERG current change (%, negative = inhibition) at 1uM” value worked out at 17.1%.
As for `COc1cccc(OC)c1C(=O)Nc1nc2cc3c(cc2s1)OCO3`, the “hERG current change (%, negative = inhibition) at 1uM” value is reported as 12%.
Then `CC(C)c1ccccc1-n1cc[nH]c1=S`, with 8.68%; and `CN(C)c1ccc(NC(=O)Nc2cccc3ccccc23)cc1`, with 15.6%.
Then `COc1ccc(C(=O)OC(C)C(=O)Nc2cc(C(F)(F)F)ccc2Cl)c(OC)c1OC` (centres unmarked), with -3.09%; and `Cc1cc(C)nc(N2CCC(C(=O)NNC(=O)Cc3ccccc3)CC2)n1`, with 10.2%.
`O=c1c(-c2ccccc2)c(O)c2ccccc2n1-c1ccccc1`: the “hERG current change (%, negative = inhibition) at 1uM” value is 8.71%.
`O=C(Cn1nnc(-c2ccc(Cl)cc2)n1)NCC1CCCCC1`: the “hERG current change (%, negative = inhibition) at 1uM” value came to 2.27%.
Then `CCn1c(COc2ccccc2C)nnc1SCC(=O)CC(=O)Nc1ccccc1`, with 11.7%.
Then `Cn1c(O)c(C=NCCN2CCNCC2)c(=O)n(C)c1=O`, with 9.99%; and `O=C(O)c1ccc2c(c1)C(=O)N(c1ccc(/C=C/C(=O)c3ccccc3)cc1)C2=O`, with 3.28%.
Then `Cc1ccc(S(=O)(=O)N(C)CCCC(=O)n2nc(C)cc2C)cc1`, with 7.9%.
Take `CC(C)Oc1ccc(CN2CCCC(CO)(Cc3ccc(F)cc3)C2)cc1` (centres unmarked): the “hERG current change (%, negative = inhibition) at 1uM” value is on record as 2.29%.
For the compound `CCN(CC(=O)Nc1ccc(N2CCOCC2)cc1)C(=O)Cc1ccccc1`, the “hERG current change (%, negative = inhibition) at 1uM” value is 14.6%.
The figure for `Cc1ccc2c(CC(=O)OCc3cc(=O)n4c(n3)sc3ccccc34)coc2c1` is 2.62%; for `Cc1ccc2nc(N(CCCN(C)C)C(=O)c3ccc(S(=O)(=O)N4CCCCCC4)cc3)sc2c1.Cl` it is 0.393%; for `Cn1c(SCC(=O)NC2CCCCC2)nnc1-c1ccncc1` it is 3.91%.
For `O=C(Nc1ccc(F)cc1)Nc1ccc(N2CCOCC2)c2nonc12`, the “hERG current change (%, negative = inhibition) at 1uM” value worked out at 5.31%.
As for `COc1ccc(N(CC(=O)NCc2ccccc2)S(=O)(=O)c2c(C)noc2C)cc1`, the “hERG current change (%, negative = inhibition) at 1uM” value was 14.5%.
The figure for `O=C(Nc1ccncc1)c1cccc(F)c1` is 2.77%; for `CCOC(=O)c1cccnc1NC(=O)c1ccccc1` it is 1.1%.
Then `COc1ccc(C(=O)COC(=O)CNC(=O)C2CCCCC2)c(OC)c1`, with -2.58%; and `CN(C)CCCn1c(SCC(=O)N2c3ccccc3Sc3ccccc32)nc2ccccc2c1=O`, with 0.0392%; and `O=C(Oc1ccc(N(Cc2cccs2)C2=NS(=O)(=O)c3ccccc32)cc1)c1ccccc1F`, with -1.46%.
The figure for `COc1ccc(CCNC(=O)CCSCc2ccccc2F)cc1OC` is 17.9%; for `O=C(NC(=S)Nc1ccc2c(c1)OCCO2)c1ccccc1` it is 2.52%.
For `CN(C)CCCNC(=O)c1cc(C(=O)Cc2ccccc2)c[nH]1`, the “hERG current change (%, negative = inhibition) at 1uM” value is 9.7%.
The figure for `Cc1cc(C)c(C#N)c(N2CCN(Cc3ccc4c(c3)OCO4)CC2)n1` is 1.32%; for `O=C(CN1CCCC1)N1CCN(c2ccccc2)CC1` it is 3.19%; for `CN(C)CCCNC(=O)c1cc(Br)ccc1Cl` it is 3.74%.
The figure for `O=C(O)CCN1C(=O)CC(N2C(=O)/C(=C/c3ccc(Cl)cc3)SC2=S)C1=O` (centres unmarked) is 14.8%; for `COc1ccc(OCc2cc(C(=O)N3CCC(OC)CC3)no2)c2ccccc12` it is 10.7%; for `CCCCOC(=O)C1=C(C)Nc2ncnn2C1c1cc(OC)c(OC)cc1OC` (centres unmarked) it is 6.11%.
With `Cc1noc(C)c1S(=O)(=O)N1CCCC(C(=O)NCc2ccccc2Cl)C1` (centres unmarked), the “hERG current change (%, negative = inhibition) at 1uM” value is 14.1%.
In the case of `Cc1cc(C(=O)CN2C(=O)c3ccccc3S2(=O)=O)c(C)n1CC1CCCO1` (centres unmarked), the “hERG current change (%, negative = inhibition) at 1uM” value was 8.66%.
Take `CC(CN1CCOCC1)OC(=O)c1cccs1.Cl` (centres unmarked): the “hERG current change (%, negative = inhibition) at 1uM” value worked out at 10.6%.
The figure for `Cc1ccc(O)c(C(=O)c2cnc3c(c2)c(C)nn3C)c1` is 13%.
Then `O=C(NCCc1ccccc1)C1CCN(S(=O)(=O)c2cccc3nsnc23)CC1`, with 16.5%.
The figure for `COc1ccc(/C=C/C(=O)Nc2ccc(S(=O)(=O)Nc3cc(C)nc(C)n3)cc2)cc1OC` is -3.27%.
`Cc1cc(NC(=O)COC(=O)c2ccc(F)c(S(=O)(=O)N3CCOCC3)c2)no1`: the “hERG current change (%, negative = inhibition) at 1uM” value is reported as -0.873%.
For `Cc1ccn2c(C=O)c(-c3ccc(F)cc3)c(C=O)c2c1`, the “hERG current change (%, negative = inhibition) at 1uM” value turned out to be 7.2%.
Then `CCOC(=O)C1=NNC(C(=O)c2ccc(Cl)cc2)C1c1ccc(OC)cc1` (centres unmarked), with 13.2%; and `O=C(Nc1ccccc1C(=O)O)c1cc(S(=O)(=O)N2CCOCC2)cs1`, with -23.8%; and `Cl.O=C(Nc1ccnc(=O)[nH]1)c1sc2ccccc2c1Cl`, with 13%.
Then `CN(C)CCN(Cc1ccccc1)c1ccnc(N(C)C)c1C#N`, with -4.98%.
The figure for `CCOC(=O)CCc1c(C)c2ccc(OCC)c(C)c2oc1=O` is -4.06%; for `O=C(CSc1nnc(-c2ccccc2F)o1)N1CCNC1=O` it is -0.912%.
As to `CCOc1ccc(CCNC(=O)COC(=O)Cn2nc(C)c([N+](=O)[O-])c2C)cc1OCC`, the “hERG current change (%, negative = inhibition) at 1uM” value was 1.91%.
As for `CC1(NC(=O)COc2ccccc2-c2ccccc2)CCS(=O)(=O)C1` (centres unmarked), the “hERG current change (%, negative = inhibition) at 1uM” value turned out to be 1.53%.
The figure for `CCOC(=O)N1CCN(C(=O)CN(c2ccc(OCc3ccccc3)cc2)S(C)(=O)=O)CC1` is -12%; for `COc1ccc(CCNC(=O)C2CCN(C(=O)c3ccc(Br)cc3)CC2)cc1` it is -12.8%; for `Cc1ccc(-n2c(O)c(C=NCc3ccccn3)c(=O)[nH]c2=S)cc1` it is 12.5%.
The figure for `C=CCn1c(SCC(=O)NCc2cccs2)nnc1C1CCCCC1` is 11%; for `COc1cc(/C=N/NC(=O)c2[nH]nc3c2CCc2ccccc2-3)ccc1O` it is 2.68%.
The figure for `O=C(c1cc(COc2c(F)cccc2F)on1)N1CCSCC1` is 9.27%.
For the compound `CC(C)OC(=O)/C(=C/c1cccnc1)NC(=O)c1ccccc1`, the “hERG current change (%, negative = inhibition) at 1uM” value amounted to 10.7%.
The figure for `CN(C)C(=O)CSc1nnc(-c2ccncc2)n1Cc1ccco1` is 18.3%; for `Cc1ccc(Cl)cc1NC(=O)c1ccc(CSc2nnnn2C)cc1` it is 9.74%.
Regarding `CC1=NN(c2ccc(C)c(C)c2)C(=O)C1C(c1cccc(O)c1)C1C(=O)N(c2ccc(C)c(C)c2)N=C1C` (centres unmarked), the “hERG current change (%, negative = inhibition) at 1uM” value is 21.1%.
On to `O=C(COc1ccccc1)Nc1cc(Cl)ccc1Cl`, for which the “hERG current change (%, negative = inhibition) at 1uM” value was 20.7%.
Then `O=C(CCC1CCCN(C(=O)CCC(F)(F)F)C1)NCc1ccc(F)c(F)c1` (centres unmarked), with 8.35%; and `Cn1ncc([N+](=O)[O-])c1C(=O)Nc1ccc(-c2nc3ccccc3o2)cc1`, with 13.4%.
Then `Cc1ccc(C)c(OCC(=O)Nc2ccncc2)c1`, with 10.5%; and `Cc1cc(C)n2c(SCc3ccc(Br)cc3)nnc2n1`, with 2.93%.
The figure for `CCC(C)c1ccc(NC(=O)Nc2cccnc2)cc1` (centres unmarked) is -3.68%; for `COc1ccc(CCN2CCCC(CN(C)Cc3cc(OC)c(OC)c(OC)c3)C2)cc1` (centres unmarked) it is -0.385%; for `COC(=O)Cc1cc(=O)n2[nH]cnc2n1` it is 9.03%.
Take `O=S(=O)(NC1CC1)c1ccc(S(=O)(=O)N2CCC3(CC2)OCCO3)cc1`: the “hERG current change (%, negative = inhibition) at 1uM” value was found to be 6.95%.
The figure for `COc1ccc(-c2oc3ccc(-c4ccc(OC)nc4)cc3c2-c2ccc(OC)cc2)cc1` is 5.17%; for `C/C(=C/C=N/Nc1nc(N2CCCCC2)nc(N2CCCCC2)n1)c1ccccc1` it is 5.29%.
With `COc1ccc(Cc2nn3c(-c4cc(OC)c(OC)c(OC)c4)nnc3s2)cc1`, the “hERG current change (%, negative = inhibition) at 1uM” value was 4.17%.
Then `O=C(c1c[nH]c2ccccc12)N1CCN(Cc2ccccc2)CC1`, with 0.531%.
Then `Cc1cc(=O)[nH]c(N/N=C/c2c[nH]c3ccccc23)n1`, with 9.01%; and `Cc1cc(OCCCCOc2ccc(C#N)cc2)ccc1[N+](=O)[O-]`, with -10.5%.
The figure for `CCOC(=O)C1CCN(CC(=O)N2C(C)CCCC2C)CC1.O=C(O)C(=O)O` (centres unmarked) is 10.3%; for `O=C(CN1CCOCC1)N1CCN(S(=O)(=O)c2ccccc2)C1c1ccccc1` (centres unmarked) it is -12.5%; for `C#CCOCCOCCOCCNc1nc(N2CCN(C(=O)[C@H](CCCCN)n3cc(C(N)CO)nn3)CC2)nc(N2CCN(C(=O)[C@H](CCCCN)n3cc(C(N)COC(=O)C(F)(F)F)nn3)CC2)n1.Cl` (some centres unmarked) it is -1.44%.
In the case of `CC1c2ccccc2N(NC(=O)Cc2ccccc2)C1C` (centres unmarked), the “hERG current change (%, negative = inhibition) at 1uM” value is 8.99%.
